Experimental data: patent US10894817B2, “Fatty acid modified urocortin-2 analogs for the treatment of diabetes and chronic kidney disease” (priority 2016, dated 2021)
At least one structure is not confirmed: it was looked up by name or label, or the drawing left a doubt. Marks after values point to notes of the source that are not given here. Starred links: 1 amine or outer side, 2 acyl side, 3 side chain; linkers in the order of their positions; H or OH if unused. Non-standard residues stand in square brackets, D forms with d. Residues, ends and D or L forms follow the SMILES beside them. Groups on a side chain read outwards from the residue. *: point of attachment. C20 diacid = O=C(O)CCCCCCCCCCCCCCCCCCC(=O)*; γGlu = O=C(O)[C@H](CCC(=O)[*:2])N[*:1]; NMeI = CC[C@H](C)[C@H](NC)C(=O)O; AEEA = NCCOCCOCC(=O)O

System: remnant kidney mice
Assay: Mouse remnant kidney model of hypertensive nephropathy (Example 4, 8 weeks)
Type: in vivo
Conditions: for Initial Body Weight: baseline; for Final Body Weight / Heart Weight / Kidney Weight / Serum Creatinine: weeks 1-2 and 4, 8 week study; for Glomerular sclerosis, pathology score / Interstitial Fibrosis, pathology score / Interstitial Inflammation, pathology score / Tubular protein, pathology score: scale none (0) to severe (5)
Method: A mouse remnant kidney model (“remnant”) involving surgical reduction of ¾ of the entire renal mass is used as a preclinical model of hypertensive renal disease (Kidney Int. 64(1):350-5, (2003)).
Surgical reduction of renal mass (N=32 mice) (obtained by Taconic, Inc.) is performed by Taconic, Inc. in male 129S6 mice at 9-10 weeks of age. Randomization into 4 equivalent groups of 8 remnant kidney mice is done at 17 weeks post-surgery by urine albumin to creatinine ratio (ACR) and body weight. Either 0.9% physiological saline for injection (“saline control”) or different dose levels of Example 4 (2.6, 7.2 and 24 nmol/kg, Lot #BCA-BE03935-019) are dosed subcutaneously three times weekly beginning at 18 weeks post-surgery.
Study duration is 8 weeks. An intermittent dosing strategy is used as Example 4 is administered only during the first two weeks and then again during the fourth week of the study, thus there are periods of time during the study in which there is no exposure of the animals to Example 4. This is done to determine if effects of the compound of Example 4 on albuminuria are simply hemodynamic driven or if there are longer lasting effects on kidney function.
For all groups, the endpoints for the study are body weight, kidney weight, heart weight, albuminuria, serum creatinine and renal pathology scores for pelvic dilation, tubular changes, tubular protein, tubular regeneration, glomerular changes, interstitial inflammation, interstitial fibrosis, Masson's score and a PAS score. There is one death in the 2.6 nmol/kg dose group of Example 4 during the study.
Body weight is determined at baseline and at termination with a Metler Toledo Balance.
The heart and kidney are removed at necropsy and weighed on a Metler Toledo Balance. Blood (500 ul) is collected from the retro-orbital sinus at termination under isoflurane anesthesia. The clotted blood is centrifuged to obtain serum. Serum is analyzed for creatinine on a Roche Hitachi Modular Analytics P analyzer with reagents from Roche.
A spot urine collection to measure urine albumin to creatinine ratio (ACR) is performed at baseline, 1, 2, 4, 6 and 8 weeks of dosing for the saline and all of the Example 4 dose groups. Spot urine collections are done by placing mice on top of a 96 well polypropylene microplate to collect their urine over a 2 hr time period. The collected urine is placed on ice, centrifuged and subjected to albumin and creatinine analysis.
Urine albumin and creatinine are determined on a Roche Hitachi Modular Analytics P analyzer. Urine creatinine is determined with the Creatinine Plus reagent by Roche. For urine albumin, the Roche Microalbumin assay is modified to adapt the calibration curve for measuring urine albumin in mice.
Remnant kidneys are removed at study termination, fixed in formalin and processed for paraffin sectioning according to standard methodology. Sections of kidney are evaluated for renal lesions by a board certified pathologist. Tubular protein, tubular regeneration, glomerular sclerosis, peri-glomerular fibrosis/inflammation, interstitial inflammation and interstitial fibrosis are semi-quantitatively scored using the following scale: none (0), minimal (1), slight (2), moderate (3), marked (4) and severe (5). Pathology scores are obtained with H&E, Masson's Trichrome and PAS stained sections.
Pathology data are statistically evaluated with R software by fitting an ordered logit model to the categorical scores, and then comparing the differences between different treatment groups. […]

[1] = 2.6 nmol/kg s.c. three times weekly
[2] = 7.2 nmol/kg s.c. three times weekly
[3] = 24 nmol/kg s.c. three times weekly

CC[C@H](C)[C@H](NC)C(=O)N[C@H](C(=O)N[C@@H](CC(C)C)C(=O)N[C@@H](CO)C(=O)N[C@@H](CC(C)C)C(=O)N[C@@H](CC(=O)O)C(=O)N[C@H](C(=O)N1CCC[C@H]1C(=O)N[C@H](C(=O)NCC(=O)N[C@@H](CC(C)C)C(=O)N[C@@H](CC(C)C)C(=O)N[C@@H](CCC(N)=O)C(=O)N[C@H](C(=O)N[C@@H](CC(C)C)C(=O)N[C@@H](CC(C)C)C(=O)N[C@@H](CCC(=O)O)C(=O)N[C@@H](CCC(N)=O)C(=O)N[C@@H](CCC(=O)O)C(=O)N[C@@H](CCCCN)C(=O)N[C@@H](CCC(N)=O)C(=O)N[C@@H](CCC(=O)O)C(=O)N[C@@H](CCCCN)C(=O)N[C@@H](CCC(=O)O)C(=O)N[C@@H](CCCCN)C(=O)N[C@@H](CCC(N)=O)C(=O)N[C@@H](CCC(N)=O)C(=O)N[C@@H](C)C(=O)N[C@@H](CCCCNC(=O)COCCOCCNC(=O)COCCOCCNC(=O)CC[C@H](NC(=O)CC[C@H](NC(=O)CCCCCCCCCCCCCCCCCCC(=O)O)C(=O)O)C(=O)O)C(=O)N[C@H](C(=O)N[C@@H](CC(N)=O)C(=O)N[C@@H](C)C(=O)N[C@@H](CCC(N)=O)C(=O)N[C@H](C(=O)N[C@@H](CC(C)C)C(=O)N[C@@H](C)C(=O)N[C@@H](CCC(N)=O)C(=O)N[C@H](C(N)=O)C(C)C)[C@@H](C)CC)[C@@H](C)O)[C@@H](C)CC)[C@@H](C)CC)C(C)C)C(C)C [Example 4] (H-[NMeI]VLSLDVPIGLLQILLEQEKQEKEKQQAK([AEEA-AEEA-γGlu-γGlu-C20 diacid])TNAQILAQV-NH2)
Initial Body Weight (2.6 nmol/kg group): 32.3 ± 0.9 g | Final Body Weight [1]: 31.8 ± 1.1 g | Heart Weight [1]: 203 ± 8 mg | Kidney Weight [1]: 280 ± 13 mg | Serum Creatinine [1]: 0.220 ± 0.013 mg/dL | ACR (2.6 nmol/kg, 1 week): 618 ± 147 µg/mg | ACR (2.6 nmol/kg, 2 week): 254 ± 98 ^a mcg/mg | ACR (2.6 nmol/kg, 4 weeks): 245 ± 121 ^a mcg/mg | ACR (2.6 nmol/kg, 6 weeks): 358 ± 143 ^a mcg/mg | ACR (2.6 nmol/kg, 8 weeks): 687 ± 108^ mcg/mg | Glomerular sclerosis, pathology score (2.6 nmol/kg): 0.4 ± 0.2 ^ | Interstitial Fibrosis, pathology score (2.6 nmol/kg): 1.0 ± 0.0 ^a | Interstitial Inflammation, pathology score (2.6 nmol/kg): 0.7 ± 0.2 ^ | Tubular protein, pathology score (2.6 nmol/kg): 0.4 ± 0.2 ^a | ACR (2.6 nmol/kg, −1 week (baseline)): 1617 ± 429 µg/mg | Initial Body Weight (7.2 nmol/kg group): 30.1 ± 1.0 g | Final Body Weight [2]: 29.8 ± 1.0 g | Heart Weight [2]: 203 ± 10 mg | Kidney Weight [2]: 277 ± 14 mg | Serum Creatinine [2]: 0.201 ± 0.008 mg/dL | ACR (7.2 nmol/kg, 1 week): 540 ± 188 µg/mg | ACR (7.2 nmol/kg, 2 week): 206 ± 41 ^a mcg/mg | ACR (7.2 nmol/kg, 4 weeks): 176 ± 110 ^a mcg/mg | ACR (7.2 nmol/kg, 6 weeks): 169 ± 17 ^a mcg/mg | ACR (7.2 nmol/kg, 8 weeks): 479 ± 87 ^a mcg/mg | Glomerular sclerosis, pathology score (7.2 nmol/kg): 0.5 ± 0.3 ^ | Interstitial Fibrosis, pathology score (7.2 nmol/kg): 0.9 ± 0.1 ^a | Interstitial Inflammation, pathology score (7.2 nmol/kg): 0.6 ± 0.2 ^ | Tubular protein, pathology score (7.2 nmol/kg): 0.1 ± 0.1 ^a | ACR (7.2 nmol/kg, −1 week (baseline)): 1599 ± 298 µg/mg | Initial Body Weight (24 nmol/kg group): 30.6 ± 0.6 g | Final Body Weight [3]: 31.6 ± 0.6 g | Heart Weight [3]: 205 ± 8 mg | Kidney Weight [3]: 310 ± 8 mg | Serum Creatinine [3]: 0.188 ± 0.013 ^a mg/dL | ACR (24 nmol/kg, 1 week): 415 ± 77 µg/mg | ACR (24 nmol/kg, 2 week): 123 ± 35 ^a mcg/mg | ACR (24 nmol/kg, 4 weeks): 73 ± 22 ^a mcg/mg | ACR (24 nmol/kg, 6 weeks): 175 ± 73 ^a mcg/mg | ACR (24 nmol/kg, 8 weeks): 278 ± 161 ^a mcg/mg | Glomerular sclerosis, pathology score (24 nmol/kg): 0.3 ± 0.2 ^a | Interstitial Fibrosis, pathology score (24 nmol/kg): 0.8 ± 0.2 ^a | Interstitial Inflammation, pathology score (24 nmol/kg): 0.4 ± 0.2 ^a | Tubular protein, pathology score (24 nmol/kg): 0.0 ± 0.0 ^a | ACR (24 nmol/kg, −1 week (baseline)): 1792 ± 728 µg/mg
